Experimental data as given in the supplement of paper PMC3334620.
Whole data set: some 33,000 sequences, median “E-score (-0.5 to 0.5)” near -0.013, cut for the highest 2% near 0.3. The list shows a part of the results.

The sequences below were run against T1, Msn1 (UniProt P22148) (assay: PBM E-score (8-mer binding enrichment) (E-score (-0.5 to 0.5)); higher = stronger / more preferred TF binding; most listed sequences are background and not binding sites). Details: protein concentration: 200 nM; construct: GST-full length.
T1 sequence: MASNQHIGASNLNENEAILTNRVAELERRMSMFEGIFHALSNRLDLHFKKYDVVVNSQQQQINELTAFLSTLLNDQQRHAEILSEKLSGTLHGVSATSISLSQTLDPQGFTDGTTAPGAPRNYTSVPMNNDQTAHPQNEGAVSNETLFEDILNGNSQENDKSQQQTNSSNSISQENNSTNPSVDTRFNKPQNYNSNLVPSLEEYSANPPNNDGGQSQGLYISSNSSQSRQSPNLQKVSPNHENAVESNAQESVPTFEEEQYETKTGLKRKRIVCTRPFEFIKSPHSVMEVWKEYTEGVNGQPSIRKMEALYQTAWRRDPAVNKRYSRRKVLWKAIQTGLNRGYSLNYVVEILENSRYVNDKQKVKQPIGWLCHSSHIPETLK
Procedure, shortened: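 For each ungapped eight-base word taken together with its reverse complement, the Universal PBM Analysis Suite assigned an E-score. Binding data came from GST-tagged yeast transcription factors, applied at about 100-200 nM, on universal all-10-mer Agilent arrays made double-stranded by primer extension. Fluorescent anti-GST marked bound protein, and scans were normalised with masliner.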

Sequence	PBM E-score
GCGGTATA	-0.253
CGGAATTA	0.135
AGAGCAAG	-0.0268
ACACGAGT	0.185
ACAATCGT	0.0286
GGTACTAA	0.0687
GTGGCTAA	0.0945
CCAAGCGG	-0.16
ACGATCCC	-0.232
CCAACAGG	-0.202
CTATATAC	0.258
CCCGTTCA	-0.136
ACCTGATA	0.105
TTGACAAA	0.266
AAAGGGGG	-0.283
CTGTGAAG	-0.0581
CCCTGTGA	-0.274
CGAACAGC	-0.157
CCTGTTAC	0.0468
CGATCTAC	-0.0258
GTTGCTAA	0.0707
AGGCATCC	-0.16
ATTTCCCA	0.187
ATAACACG	-0.0422
GGAAGTTA	-0.0774

Sequence	PBM E-score
AATCAAAC	0.255
GGTTCATA	-0.124
CCCCCCGG	-0.364
CTAGCCGC	-0.0208
CCACTTAC	-0.133
AGAGATCC	-0.0104
ACTACAAT	0.17
GGCGCGCC	0.172
ATTGCAAG	-0.0753
AAGGCTAT	-0.137
CCCGAAAG	0.0562
CATGTGGC	-0.0208
AGGCAGAA	-0.123
AGATCACA	-0.102
AAGAACGG	-0.0325
AGAAGGCC	-0.158
AAGTCATC	0.00089
CGATTCTA	-0.0158
CTGCCAAA	0.0491
CTACCGCC	-0.0358
AAAAGTCC	0.467
AGTCCACT	-0.12
AAGAAGGT	-0.074
TGGAGGAA	-0.161
CGATAAGC	-0.0093

Sequence	PBM E-score
AGATAGGG	-0.0745
AGACCAAG	-0.121
ACCGGTAC	-0.0184
GAATGCAA	-0.193
ATGCGAAT	-0.0861
GAAAATGA	0.0447
AATAATGA	-0.0153
ACGGGCAC	-0.218
AACCTTAT	-0.128
CCAGTCAA	0.126
AACGGATA	0.18
ACTCCGGA	0.26
AATAGATC	0.0278
CGCGAGGC	0.0864
CCTTAGCC	-0.0421
TCTAAAGA	0.205
ATGATAGC	0.081
AAGAATTA	0.0763
GAAAGTCA	0.233
AAAGCCCA	-0.0978
ACCCGGAA	0.0689
CAAAATTC	0.196
TATTTAGA	0.175
GTCTAGAA	0.132
CTGAAGGC	-0.099

Sequence	PBM E-score
CATCCCCG	-0.0978
ATCTGGTC	0.107
GACAAACA	0.456
TGATGCAA	-0.0374
AATGCACT	0.0779
CCATTGTA	0.193
TACAAGCA	0.153
TGCCGACA	0.0657
ACGTATAT	-0.0231
CCCGAAAC	0.0881
AACGCGAC	0.12
ATTACCTC	-0.129
GCGTTAGA	-0.0741
AATTAACG	0.0476
ATGCAAAG	-0.174
GGGCTTCA	-0.174
CAAACGCG	0.143
ATAGTCAG	0.0958
GCACCAGA	-0.0389
CCGCTTTC	-0.0394
AGCCGCAA	-0.104
CGACCTCG	0.0004
ACAATAAT	0.226
CACTCCTG	-0.0699
ACTGAAGC	-0.0558

Sequence	PBM E-score
TCACGAGA	-0.155
CCCAATTA	0.00991
GAAGTGAC	0.035
CCACATGA	-0.0225
CGAAGGGC	-0.133
CTCACGTC	-0.0704
AAAATATG	0.25
GAAACGAA	0.115
CGGGACTA	-0.0343
CGTGTGTC	0.0945
ATGCTTCG	-0.0312
GCCAATTA	0.0707
ACGTTTAG	0.0819
ACAGGATC	-0.143
CTACAGGA	0.172
CGGGCTCC	-0.163
AAATGATC	-0.0173
CAGGACCG	0.0269
CGGGCGGA	-0.115
AAAGATAA	0.14
GGCCTTAC	-0.18
CTTATCAC	-0.153
GGATGCGA	-0.263
ACCCTATA	-0.242
ATTCCATC	-0.0374

Sequence	PBM E-score
AGGAAACT	0.025
AGCCAGTA	-0.221
AAATAAAA	0.152
ACATTCAG	0.118
TAGATATA	0.0924
CTTACCAC	-0.136
GAGGAATC	-0.229
AATACAAC	0.0955
AATAACCA	0.0204
ATGATTAC	0.0458
CGCACGGC	-0.0248
ATATAAAC	0.165
AGTCGGCC	0.0396
GGGTTTAA	-0.0514
TCGGGCAA	0.159
GTTGCGAA	-0.00877
GTCGGTAA	-0.0694
AGACAGCG	-0.0898
CGACTTGC	-0.044
TACAGCTA	-0.321
ACGCAAAT	-0.138
CGTGAAAC	0.0533
GTGAGGAA	-0.12
ACAATGAT	0.207
TCCACGAA	0.0823

Sequence	PBM E-score
CCCCACGA	-0.108
CATGAGGA	0.00142
GACATTAA	0.431
AGCTCCTC	-0.315
CCGTGCCC	-0.316
AACGATGC	-0.27
ATGTTGAA	0.00843
AGTTTCAA	-0.0354
CTCAATGC	-0.152
AAACGAGT	0.117
CGCCATCC	-0.325
GTAAACAA	0.244
CACTCCAA	-0.0743
ATAGCTCC	-0.0819
CAAAAGTC	0.282
ATGGGAAA	-0.0265
GTGTCTTA	0.04
ACCATAGT	-0.0307
GCTATACA	-0.11
GCGTAATA	-0.091
AGTACGCG	0.0601
GACTCGGC	-0.0674
